Results as given in paper PMC4336329 (PLoS ONE, 2015).
Among all 310,000 compounds or so, about 2,200 (0.71%) showed an effect of 50% or more. The effect is printed as a negative number. The list shows a part of the results.

target: human ether-à-go-go-related gene (hERG) potassium channel (human, UniProt Q12809); experiment: primary screen, population patch clamp on CHO cells stably expressing hERG
Sequence (Q12809 whole entry, looked up): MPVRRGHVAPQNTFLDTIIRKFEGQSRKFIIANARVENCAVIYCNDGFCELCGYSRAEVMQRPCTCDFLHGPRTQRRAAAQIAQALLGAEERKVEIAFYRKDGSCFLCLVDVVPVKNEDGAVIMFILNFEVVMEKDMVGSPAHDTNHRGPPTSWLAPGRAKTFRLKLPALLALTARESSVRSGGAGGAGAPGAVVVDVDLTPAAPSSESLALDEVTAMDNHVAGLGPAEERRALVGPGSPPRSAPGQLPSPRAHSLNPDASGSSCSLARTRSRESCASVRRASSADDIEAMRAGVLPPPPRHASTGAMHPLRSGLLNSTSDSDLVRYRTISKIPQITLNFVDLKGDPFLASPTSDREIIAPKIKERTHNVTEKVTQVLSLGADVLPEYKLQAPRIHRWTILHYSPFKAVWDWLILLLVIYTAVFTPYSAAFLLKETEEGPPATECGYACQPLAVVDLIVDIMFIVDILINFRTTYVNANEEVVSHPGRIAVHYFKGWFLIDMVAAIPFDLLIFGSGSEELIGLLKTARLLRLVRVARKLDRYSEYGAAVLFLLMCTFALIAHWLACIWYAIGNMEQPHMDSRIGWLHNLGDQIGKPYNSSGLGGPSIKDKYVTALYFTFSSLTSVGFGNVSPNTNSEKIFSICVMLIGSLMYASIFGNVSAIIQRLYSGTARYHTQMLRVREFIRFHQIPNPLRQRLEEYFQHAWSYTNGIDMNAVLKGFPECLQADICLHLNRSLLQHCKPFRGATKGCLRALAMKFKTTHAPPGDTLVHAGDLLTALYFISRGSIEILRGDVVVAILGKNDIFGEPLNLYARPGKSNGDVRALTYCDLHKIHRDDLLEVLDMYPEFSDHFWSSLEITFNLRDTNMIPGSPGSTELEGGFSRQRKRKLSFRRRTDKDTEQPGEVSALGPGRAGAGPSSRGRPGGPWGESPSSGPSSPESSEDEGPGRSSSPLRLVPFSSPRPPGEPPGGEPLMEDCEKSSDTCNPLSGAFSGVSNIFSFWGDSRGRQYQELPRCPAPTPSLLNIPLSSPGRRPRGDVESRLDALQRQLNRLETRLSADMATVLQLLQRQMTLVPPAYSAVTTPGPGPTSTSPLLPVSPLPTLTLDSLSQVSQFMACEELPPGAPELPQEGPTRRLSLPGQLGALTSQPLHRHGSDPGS

**Q.** With `O=C1CSC(c2ccccc2F)N1c1ccccc1F` (stereo not drawn) as the molecule, how does the “hERG current change (%, negative = inhibition) at 1uM” value read?
**A.** 13%

**Q.** For `CCOC(=O)Cc1nnc(NC(=O)CSc2ncc(-c3ccccc3)nn2)s1`, which “hERG current change (%, negative = inhibition) at 1uM” value is on record?
**A.** -14.3%

**Q.** Which “hERG current change (%, negative = inhibition) at 1uM” value does the source give for `Fc1ccccc1-c1cc2ccccc2cn1` here?
**A.** 7.59%

**Q.** How did the “hERG current change (%, negative = inhibition) at 1uM” value turn out when `CCN(CC)CCOC(=O)c1ccc(NC(=O)CCNC(=O)Cn2ccc3ccccc3c2=O)cc1` was run?
**A.** 17.4%

**Q.** With `CCOC(=O)Nc1cccc(NC(=O)c2cc(OC)cc(OC)c2)c1` as the molecule, how does the “hERG current change (%, negative = inhibition) at 1uM” value read?
**A.** -3.87%

**Q.** With `CN(C1CCS(=O)(=O)C1)S(=O)(=O)c1cccs1` (stereo not drawn) as the molecule, how does the “hERG current change (%, negative = inhibition) at 1uM” value read?
**A.** -17.6%

**Q.** `CC(N=Cc1nc(-c2ccccc2)oc1O)c1ccccc1` (stereo not drawn) was tested. Which “hERG current change (%, negative = inhibition) at 1uM” value did it give?
**A.** 6.15%

**Q.** With `CCOC(=O)C1CCN(S(=O)(=O)c2ccc(CNC(=O)c3ccccc3)s2)CC1` as the molecule, how does the “hERG current change (%, negative = inhibition) at 1uM” value read?
**A.** 6.5%

**Q.** Which “hERG current change (%, negative = inhibition) at 1uM” value does the source give for `C=C1C(=O)O[C@@H]2[C@H]1[C@@H](OC(=O)/C(C)=C/C)C/C(C)=C\C(=O)/C=C(\C)[C@@H]2O` here?
**A.** 11%

**Q.** Which “hERG current change (%, negative = inhibition) at 1uM” value does the source give for `COC(=O)CSc1nnc(-c2ccc(S(=O)(=O)N3CCCC3)cc2)n1C` here?
**A.** 18.8%

**Q.** With `Cc1nc([N+](=O)[O-])c(SCC(O)CCl)n1Cc1ccc(Cl)cc1` (stereo not drawn) as the molecule, how does the “hERG current change (%, negative = inhibition) at 1uM” value read?
**A.** -2.57%

**Q.** Which “hERG current change (%, negative = inhibition) at 1uM” value does the source give for `Fc1ccc(/C=N/Nc2ccccn2)cc1` here?
**A.** 7.93%

**Q.** With `Cc1ccc(C)c(Cn2c(C(=O)OC(C)C)cc3c2ccn3C)c1` as the molecule, how does the “hERG current change (%, negative = inhibition) at 1uM” value read?
**A.** 1.04%

**Q.** With `CCN1C(=O)[C@@H]2[C@@H](c3ccc(-c4ccc(OC)cc4)c(OC)c3)N3CCCC[C@@]3(C(=O)OC)[C@@H]2C1=O.O=C(O)C(F)(F)F` as the molecule, how does the “hERG current change (%, negative = inhibition) at 1uM” value read?
**A.** 10.2%

**Q.** Which “hERG current change (%, negative = inhibition) at 1uM” value does the source give for `Cc1sc(NC(=O)c2ccco2)c(CN2CCN(c3ccc(F)cc3)CC2)c1C` here?
**A.** 13.1%

**Q.** `N#C/C(=C\c1ccc(Br)s1)C(=O)N1CCN(c2ccccc2)CC1` was tested. Which “hERG current change (%, negative = inhibition) at 1uM” value did it give?
**A.** -8.23%

**Q.** Which “hERG current change (%, negative = inhibition) at 1uM” value does the source give for `COc1ccc(CCNC(=O)CSc2nc(C)cc(C)n2)cc1OC` here?
**A.** -2.92%

**Q.** Which “hERG current change (%, negative = inhibition) at 1uM” value does the source give for `CCOC(=O)N1CCC(Nc2c(N3CCN(c4cccc(C(F)(F)F)c4)CC3)c(=O)c2=O)CC1` here?
**A.** -36.3%

**Q.** `CC(=O)Nc1cccc(NC(=O)c2ccccc2OCc2ccccc2)c1` was tested. Which “hERG current change (%, negative = inhibition) at 1uM” value did it give?
**A.** 13.5%

**Q.** With `CNc1nc(C)c(C#N)cc1C(C)=O` as the molecule, how does the “hERG current change (%, negative = inhibition) at 1uM” value read?
**A.** 3.21%

**Q.** For `COc1cc(NC(=O)CC(C)n2ccnc2)cc(OC)c1` (stereo not drawn), which “hERG current change (%, negative = inhibition) at 1uM” value is on record?
**A.** 12%

**Q.** `COc1cc(Cl)c(C)cc1NC(C)C(=O)Nc1cc(C(F)(F)F)ccc1N1CCOCC1` (stereo not drawn) was tested. Which “hERG current change (%, negative = inhibition) at 1uM” value did it give?
**A.** 8.87%

**Q.** For `COc1cccc2cc(-c3cn4cccc(C)c4n3)c(=O)oc12`, which “hERG current change (%, negative = inhibition) at 1uM” value is on record?
**A.** 17.2%

**Q.** With `CCN(CC(=O)NCc1cccnc1)S(=O)(=O)c1ccc(OC)cc1` as the molecule, how does the “hERG current change (%, negative = inhibition) at 1uM” value read?
**A.** 0.0713%

**Q.** Which “hERG current change (%, negative = inhibition) at 1uM” value does the source give for `COc1ccc(C2(CNS(=O)(=O)c3ccccc3)CCOCC2)cc1` here?
**A.** 6.06%

**Q.** Which “hERG current change (%, negative = inhibition) at 1uM” value does the source give for `Cc1cccc(NC(=S)N/N=C(\c2ccccc2)C(C)C)c1` here?
**A.** 8.91%

**Q.** `COc1ccc(Cl)cc1NC(=O)C(C)Sc1n[nH]c(N)n1` (stereo not drawn) was tested. Which “hERG current change (%, negative = inhibition) at 1uM” value did it give?
**A.** 11.1%

**Q.** `CSc1nsc(SC)c1NC(=O)N1CCCCC1` was tested. Which “hERG current change (%, negative = inhibition) at 1uM” value did it give?
**A.** 10.7%

**Q.** For `CCCCCCCCCCCCCCCC(O)C(N)CO` (stereo not drawn), which “hERG current change (%, negative = inhibition) at 1uM” value is on record?
**A.** 7.04%

**Q.** Which “hERG current change (%, negative = inhibition) at 1uM” value does the source give for `CCC(C)NS(=O)(=O)c1ccc(OCC(=O)Nc2ccc3c(c2)OCCO3)cc1` (stereo not drawn) here?
**A.** -9.54%

**Q.** With `Cc1ccc(S(=O)(=O)N(C)C)cc1NC(=O)COC(=O)/C=C/c1ccc(F)cc1` as the molecule, how does the “hERG current change (%, negative = inhibition) at 1uM” value read?
**A.** 19%

**Q.** How did the “hERG current change (%, negative = inhibition) at 1uM” value turn out when `C/C(=C\C(=O)c1c(O)cc(C)oc1=O)N(C)C` was run?
**A.** 14.6%

**Q.** How did the “hERG current change (%, negative = inhibition) at 1uM” value turn out when `Cc1ccc(S(=O)(=O)Nc2ccccc2C(N)=O)cc1` was run?
**A.** 5.28%

**Q.** How did the “hERG current change (%, negative = inhibition) at 1uM” value turn out when `COC(=O)c1cc2c(-c3ccccc3)c(C)c3ccccn3c-2c1C(=O)OC` was run?
**A.** 13.1%

**Q.** With `Cc1cccc(NC(=O)c2ccc(Cl)c(S(=O)(=O)N3CCCCC3)c2)n1` as the molecule, how does the “hERG current change (%, negative = inhibition) at 1uM” value read?
**A.** -20.8%

**Q.** With `CS(=O)(=O)N(Cc1ccccc1)c1ccc(C(=O)NC2CCCCC2O)cc1` (stereo not drawn) as the molecule, how does the “hERG current change (%, negative = inhibition) at 1uM” value read?
**A.** 3.66%

**Q.** For `COc1ccc(N2CCN(Cc3cc(=O)oc4ccc(C)cc34)CC2)cc1`, which “hERG current change (%, negative = inhibition) at 1uM” value is on record?
**A.** 13%

**Q.** With `COc1ccc(C(C(=O)NC2CCCC2)N(Cc2cccs2)C(=O)c2ccn[nH]2)cc1OC` (stereo not drawn) as the molecule, how does the “hERG current change (%, negative = inhibition) at 1uM” value read?
**A.** 19.3%

**Q.** For `O=C(CCCc1ccccc1)c1ccccc1`, which “hERG current change (%, negative = inhibition) at 1uM” value is on record?
**A.** 19.4%

**Q.** How did the “hERG current change (%, negative = inhibition) at 1uM” value turn out when `C=CCN1C(=O)CSc2ccc(C(=O)NCCC3=CCCCC3)cc21` was run?
**A.** -6.7%

**Q.** How did the “hERG current change (%, negative = inhibition) at 1uM” value turn out when `COc1ccc(C)c2sc(=NC(=O)c3ccc(C(C)=O)cc3)n(C)c12` was run?
**A.** 10.2%

**Q.** For `CCOc1ccc(N2C(=O)CC(NCCNc3ccc([N+](=O)[O-])cn3)C2=O)cc1` (stereo not drawn), which “hERG current change (%, negative = inhibition) at 1uM” value is on record?
**A.** -37.8%

**Q.** With `S=C(Nc1ccccc1)c1ccccn1` as the molecule, how does the “hERG current change (%, negative = inhibition) at 1uM” value read?
**A.** 11%

**Q.** How did the “hERG current change (%, negative = inhibition) at 1uM” value turn out when `O=c1[nH]c(C2CCN(S(=O)(=O)c3ccccc3)CC2)nc2c1nnn2Cc1cccc(Cl)c1` was run?
**A.** 10.5%

**Q.** `N#Cc1ccc(OCC(=O)N2CCN(C(=O)c3ccco3)CC2)cc1` was tested. Which “hERG current change (%, negative = inhibition) at 1uM” value did it give?
**A.** -40.2%

**Q.** How did the “hERG current change (%, negative = inhibition) at 1uM” value turn out when `Cl.c1ccc(C2CN3CCSC3=N2)cc1` (stereo not drawn) was run?
**A.** 11.7%

**Q.** For `CC(=O)c1cccc(NC(=O)c2ccc(S(=O)(=O)N3CCCCC3)cc2)c1`, which “hERG current change (%, negative = inhibition) at 1uM” value is on record?
**A.** 5.02%

**Q.** How did the “hERG current change (%, negative = inhibition) at 1uM” value turn out when `O=C(c1ccoc1)N1CCCC(N2CCN(c3ccc(F)cc3)CC2)C1` (stereo not drawn) was run?
**A.** -1.93%

**Q.** With `CCOc1ccc(OCCC(=O)Nc2ccc(F)cc2C)cc1` as the molecule, how does the “hERG current change (%, negative = inhibition) at 1uM” value read?
**A.** 10.3%

**Q.** For `COc1ccc(CNC(=S)Nc2cccc(Cl)c2)cc1`, which “hERG current change (%, negative = inhibition) at 1uM” value is on record?
**A.** 10.9%

**Q.** `Cc1ccc(C)n1CCN1CCN(CC(=O)Nc2ccc(S(N)(=O)=O)cc2)CC1` was tested. Which “hERG current change (%, negative = inhibition) at 1uM” value did it give?
**A.** 4.32%

**Q.** For `COc1ccc(OC)c(CNc2ccc3c(c2)nc(C)n3C)c1`, which “hERG current change (%, negative = inhibition) at 1uM” value is on record?
**A.** -8.17%

**Q.** With `Cc1ccc(OCC(=O)c2c[nH]c3ccccc23)c([N+](=O)[O-])n1` as the molecule, how does the “hERG current change (%, negative = inhibition) at 1uM” value read?
**A.** 19.6%

**Q.** `O=C(CSC1=NCCS1)Nc1cccc(F)c1` was tested. Which “hERG current change (%, negative = inhibition) at 1uM” value did it give?
**A.** 6.9%

**Q.** With `CCN(Cc1cnn(C)c1)C(=O)c1ccc(OC2CCN(S(=O)(=O)N(C)C)CC2)cc1` as the molecule, how does the “hERG current change (%, negative = inhibition) at 1uM” value read?
**A.** 11.5%

**Q.** Which “hERG current change (%, negative = inhibition) at 1uM” value does the source give for `CCn1c2ccccc2c2cc(N=C3SC(CC(=O)Nc4ccccc4)C(=O)N3C)ccc21` (stereo not drawn) here?
**A.** 16.2%

**Q.** Which “hERG current change (%, negative = inhibition) at 1uM” value does the source give for `COc1ccc(C(=O)O)cc1S(=O)(=O)NCc1ccccn1` here?
**A.** 9.89%
